Out of some 39,000 compounds screened, about 220 (0.56%) showed activity. The list shows a part of the results.
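Further: static incubation at 37 °C against the wild-type strain, values averaged over two biological replicates.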

This experiment has as its system Escherichia coli K-12 BW25113. Briefly: relative growth (OD600 normalised to plate interquartile mean) (fraction); higher = less growth inhibition, active = 0.2 or less. To be noted: 50 µM; LB; incubation time: overnight (16-24 h).
For the compound `C[C@H]1CN([C@@H](C)CO)C(=O)CCCn2cc(nn2)CO[C@H]1CN(C)Cc1ccc(C(=O)Nc2ccccc2N)cc1`, the relative growth was inactive: 0.999. As for `CCN(CC)CCOc1ccc2c(c1)C(=O)c1cc(OCCN(CC)CC)ccc1-2`, the figure is inactive: 1.03; as for `C[C@H](CO)N1C[C@H](C)[C@H](CN(C)S(=O)(=O)c2cccs2)Oc2ccc(NS(C)(=O)=O)cc2C1=O`, inactive: 0.999; as for `COc1ccc(C#Cc2cnc3c(c2)C(=O)N([C@@H](C)CO)C[C@@H](C)[C@@H](CN(C)CC2CCOCC2)O3)cc1`, inactive: 0.992. As for `C[C@H](CO)N1C[C@H](C)[C@H](CN(C)S(=O)(=O)c2cn(C)cn2)Oc2ccc(NC(=O)Cn3cnnn3)cc2C1=O`, the figure is inactive: 1; as for `C[C@H](CO)N1C[C@H](C)[C@@H](CN(C)C(=O)Cc2ccncc2)Oc2ncc(C#Cc3ccccc3F)cc2C1=O`, inactive: 1. Turning to `O=C(C[C@H]1C=C[C@@H](NC(=O)CN2CCOCC2)[C@H](CO)O1)NCc1cccc(F)c1`, the relative growth was inactive: 1. As for `C[C@@H]1CN([C@H](C)CO)C(=O)c2cc(NS(C)(=O)=O)ccc2O[C@H]1CN(C)S(=O)(=O)c1ccc(Cl)cc1`, the figure is inactive: 0.982; as for `O=C(C[C@@H]1CC[C@@H]2[C@H](COC[C@@H](O)CN2C(=O)c2ccccn2)O1)NC1CCC1`, inactive: 1.07. For `C[C@@H]1CN([C@@H](C)CO)C(=O)c2cccc(NC(=O)C3CC3)c2O[C@H]1CN(C)S(=O)(=O)c1cn(C)cn1`, the relative growth is inactive: 0.974.

Turning to `CCc1nc2ccc(C(=O)NCCN3CCNC3=O)cn2c1N(CC)Cc1cccc(Br)c1`, the relative growth is inactive: 1. As for `C[C@@H]1CN([C@H](C)CO)C(=O)Cc2cc(NS(=O)(=O)c3ccccc3)ccc2O[C@H]1CN(C)S(=O)(=O)c1cn(C)cn1`, the figure is inactive: 0.979; as for `CC(C)(C)c1ccc(NC(=O)c2ccc(C(C)(C)C)s2)cc1`, inactive: 1.04; as for `COc1ccc(NC(=O)N(C)C[C@H]2OCCCC[C@H](C)Oc3ccc(NC(=O)Nc4ccccc4)cc3C(=O)N([C@@H](C)CO)C[C@@H]2C)cc1`, inactive: 1.02. `COc1ccc(NC(=O)Nc2ccc3c(c2)C(=O)N([C@@H](C)CO)C[C@@H](C)[C@H](CN(C)C(=O)c2ccccc2)OCCCC[C@H](C)O3)cc1`: the relative growth was inactive: 0.997. As for `COCc1cn(CC[C@H]2CC[C@H](NC(=O)CCN3CCCCC3)[C@@H](CO)O2)nn1`, the figure is inactive: 1.02; as for `Cc1noc(C)c1S(=O)(=O)N(C)C[C@H]1Oc2ccc(NS(=O)(=O)c3ccccc3)cc2C(=O)N([C@@H](C)CO)C[C@H]1C`, inactive: 1. On to `Cc1noc(C)c1NC(=O)Nc1ccc2c(c1)C(=O)N([C@@H](C)CO)C[C@@H](C)[C@H](CN(C)C(=O)Nc1ccccc1)OCCCC[C@H](C)O2`, for which the relative growth is inactive: 1.02. As for `O=C(O)c1cn2cccc(O)c2n1`, the figure is inactive: 0.997; as for `COc1ccc([C@@H](NC(=O)C2CCN(CCOc3ccc(Cl)cc3Cl)CC2)c2ccccn2)cc1`, inactive: 1.01. As for `COc1ccccc1CNC(=O)C[C@@H]1CC[C@@H]2[C@H](COC[C@H](O)CN2C(=O)Nc2ccc(Cl)cc2)O1`, the figure is inactive: 0.943; as for `O=C(C[C@H]1C[C@H]2c3cc(NC(=O)C4CCOCC4)ccc3O[C@H]2[C@@H](CO)O1)NCc1ccc2c(c1)OCO2`, inactive: 0.994. As for `Cc1ccc(S(=O)(=O)Nc2ccc3c(c2)C(=O)N([C@@H](C)CO)C[C@H](C)[C@@H](CN(C)S(=O)(=O)c2cn(C)cn2)O3)cc1`, the figure is inactive: 0.932; as for `CCO[C@H]1OC(C(=O)N2CCOCC2)=C[C@@H](c2ccc3c(c2)OCO3)[C@@H]1CCCOC(=O)NCCCCCC(=O)NO`, inactive: 0.999. With `CCN(Cc1cc(C(F)(F)F)ccc1-c1cc(CC(=O)O)ccc1OC)C(=O)NCc1ccccc1`, the relative growth is inactive: 0.998.

For the compound `Cc1noc(C)c1NC(=O)Nc1ccc2c(c1)C(=O)N([C@H](C)CO)C[C@@H](C)[C@H](CN(C)C(=O)Nc1ccccc1)OCCCC[C@@H](C)O2`, the relative growth was inactive: 0.994. As for `CC(C)NC(=O)Nc1ccc2c(c1)C(=O)N([C@H](C)CO)C[C@@H](C)[C@@H](CN(C)S(=O)(=O)c1cccs1)O2`, the figure is inactive: 0.979; as for `COc1ccc(C#Cc2cnc3c(c2)C(=O)N([C@H](C)CO)C[C@@H](C)[C@H](CN(C)C(=O)CC2CC2)O3)cc1`, inactive: 1.01; as for `COC(=O)c1ccc([C@H](c2c(N)n(CC(C)C)c(=O)[nH]c2=O)N2CCOCC2)cc1`, inactive: 1.02. As for `O=C(NCC[C@H]1CCCCN1S(=O)(=O)c1ccc(F)cc1)C(=O)NCCN1CCOCC1`, the figure is inactive: 0.997; as for `COc1ccc(CCNC(=O)[C@@]2(Cc3ccccc3I)c3ccccc3C(=O)N(Cc3ccccc3OC)[C@H]2c2ccc(CO)cc2)cc1`, inactive: 1.03. Turning to `CC(N)(Cc1cccc(O)c1)C(=O)O` (stereo not drawn), the relative growth is inactive: 0.968.

As to `O=C(N[C@H]1C=C[C@H](CC(=O)N2CCOCC2)O[C@@H]1CO)c1ccccn1`, the relative growth was inactive: 0.967. As to `CO[C@H]1CN(C)C(=O)c2ccc(NC(=O)Nc3ccccc3)cc2OC[C@H](C)N(C(=O)CN(C)C)C[C@H]1C`, the relative growth was inactive: 1.04.

As to `C[C@@H]1CN([C@@H](C)CO)C(=O)c2cc(NC(=O)Nc3ccc(C(F)(F)F)cc3)ccc2O[C@@H](C)CCCCO[C@@H]1CN(C)C(=O)Nc1ccc2c(c1)OCO2`, the relative growth was inactive: 1.03. As for `COc1ccc(C(=O)Nc2ccc3c(c2)C(=O)N(C)[C@@H]2CC[C@@H](CC(=O)NCC4CC4)O[C@H]2CO3)cc1`, the figure is inactive: 0.96; as for `O=C1CC2(CCCC2)CC(=O)N1`, inactive: 0.987; as for `COc1ccc(S(=O)(=O)N(C)C[C@@H]2Oc3ccc(NC(=O)Cn4cnnn4)cc3C(=O)N([C@H](C)CO)C[C@H]2C)cc1`, inactive: 1. As for `C[C@@H]1CN([C@@H](C)CO)C(=O)CCCn2cc(nn2)CO[C@@H]1CN(C)Cc1ccc(C(=O)Nc2ccccc2N)cc1`, the figure is inactive: 0.97; as for `Cc1ccc(S[C@]2(C(=O)NCC(F)(F)F)CC(=O)N(Cc3cc(C(F)(F)F)cc(C(F)(F)F)c3)[C@@H]2c2ccc(CO)cc2I)cc1`, inactive: 0.86; as for `COCC#Cc1ccc2c(c1)O[C@H](CN(C)S(=O)(=O)c1cccc(F)c1)[C@@H](C)CN([C@H](C)CO)S2(=O)=O`, inactive: 1.01. As for `Cc1noc(C)c1S(=O)(=O)Nc1ccc2c(c1)C(=O)N([C@@H](C)CO)C[C@@H](C)[C@@H](CN(C)Cc1ccc(-c3ccccc3)cc1)O2`, the figure is inactive: 0.965. Take `C[C@@H]1CN([C@H](C)CO)C(=O)Cc2cc(NS(C)(=O)=O)ccc2O[C@H]1CN(C)S(=O)(=O)c1ccccc1`: the relative growth was inactive: 1.09. Take `COCC(=O)N1C[C@H](C)[C@H](OC)CN(C)C(=O)c2cc(NC(=O)c3cc(C)on3)ccc2OC[C@H]1C`: the relative growth was inactive: 0.996. As for `CCNC(=O)[C@@H]1CCCN1C(=O)[C@H](CCCNC(=N)N)NC(=O)[C@H](CC(C)C)NC(=O)[C@@H](CC(C)C)NC(=O)[C@H](Cc1ccc(O)cc1)NC(=O)[C@H](CO)NC(=O)[C@H](Cc1c[nH]c2ccccc12)NC(=O)[C@H](Cc1cnc[nH]1)NC(=O)[C@@H]1CCC(=O)N1`, the figure is inactive: 1.02. As for `C[C@@H]1CN([C@@H](C)CO)C(=O)Cc2cc(NS(=O)(=O)c3cn(C)cn3)ccc2O[C@H]1CN(C)Cc1ccncc1`, the figure is inactive: 0.981; as for `Cc1noc(C)c1NC(=O)N(C)C[C@H]1OCCCC[C@@H](C)Oc2ccc(NC(=O)C3CCCCC3)cc2C(=O)N([C@@H](C)CO)C[C@@H]1C`, inactive: 0.969.

With `CCC1OC(=O)CC(O)C(C)C(OC2OC(C)C(O)C(N(C)C)C2O)C(CCN2CC(C)CC(C)C2)CC(C)C(=O)C=CC(C)=CC1COC1OC(C)C(O)C(OC)C1OC` (stereo not drawn), the relative growth was inactive: 0.864. As for `CC(C)NC(=O)Nc1ccc2c(c1)CC(=O)N([C@@H](C)CO)C[C@H](C)[C@H](CN(C)S(=O)(=O)c1ccc(F)cc1)O2`, the figure is inactive: 0.99; as for `C[C@@H]1CN([C@H](C)CO)C(=O)c2cc(C#Cc3ccccc3)cnc2O[C@@H]1CN(C)C(=O)CCN1CCCCC1`, inactive: 1; as for `COCC(=O)Nc1ccc2c(c1)C(=O)N(C)[C@H]1CC[C@H](CC(=O)NCc3ccc(OC)cc3)O[C@@H]1CO2`, inactive: 0.992. As for `COc1ccc(NC(=O)Nc2cccc3c2O[C@H](CN(C)Cc2ccc(C(=O)Nc4ccccc4N)cc2)[C@H](C)CN([C@@H](C)CO)C3=O)cc1`, the figure is inactive: 0.982. As for `C[C@@H]1CN([C@H](C)CO)C(=O)c2cccc(NS(=O)(=O)c3cn(C)cn3)c2O[C@H]1CN(C)S(=O)(=O)c1ccccc1`, the figure is inactive: 0.996; as for `C[C@H]1CN([C@@H](C)CO)C(=O)c2cc(C#CC3(O)CCCC3)cnc2O[C@@H]1CN(C)S(=O)(=O)c1cccc(F)c1`, inactive: 1.01. On to `COc1ccc(CN(C)C[C@@H]2OCCCC[C@H](C)Oc3ccc(NC(=O)NC4CCCCC4)cc3C(=O)N([C@@H](C)CO)C[C@H]2C)cc1`, for which the relative growth is inactive: 0.979. Regarding `O=C(CNCCO)Nc1ccc(F)c(Cl)c1`, the relative growth was inactive: 0.957. As for `Cc1cc(C(=O)Nc2cccc3c2O[C@H](CN(C)Cc2ccc4c(c2)OCO4)[C@H](C)CN([C@H](C)CO)C3=O)n(C)n1`, the figure is inactive: 0.98; as for `COc1ccc(C=CC(=O)O)cc1OC`, inactive: 0.968; as for `O=c1nc(NCCN2CCOCC2)cn[nH]1`, inactive: 0.998. As for `OCC(O)CO`, the figure is inactive: 1.01; as for `Cn1nnc2cc(CO)ccc21`, inactive: 1.01.

With `CCN(CC)CCCCNc1ncc2cc(-c3cc(OC)cc(OC)c3)c(NC(=O)NC(C)(C)C)nc2n1`, the relative growth is inactive: 0.848.

Consider `O=C(C[C@@H]1C[C@@H]2c3cc(NC(=O)Nc4ccccc4F)ccc3O[C@@H]2[C@@H](CO)O1)NCc1ccc(Oc2ccccc2)cc1`, for which the relative growth was inactive: 1.

The values above are taken from the supplement of paper PMC9446081.
